Several values for one entry are separate records, joined by “and”; a condition that tells them apart may be missing. Equal entries are not always repeated. Out of some 420,000 compounds screened, about 50,000 (12%) were called active. This list was built around the results that the source calls inconclusive (neither active nor inactive); the mix of calls is not that of the screen. Calls come from the whole dose curve; as a rule, active = well fitted inhibition curve with a large enough effect; inconclusive = small, poorly fitted or top-dose-only effect; inactive = flat fitted curve, though single readings scatter. Potencies of inconclusive entries are doubtful fits and often do not repeat. Some compounds were tested as several samples or in several runs, with calls that do not always agree.
Test: qHTS for Inhibitors of human tyrosyl-DNA phosphodiesterase 1 (TDP1): qHTS in cells in presence of CPT; note: nearly all actives have a fitted effect of over 55% in size
Conditions: chicken DT40 Tdp1-/-;hTDP1 cells + 20 nM CPT, ATP luminescence, 48 h; activity change, negative = growth inhibition: at 46.2 µM (top of the series) unless noted
Summary of the method: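 Chicken DT40 Tdp1-/- cells stably complemented with human TDP1 were seeded at 400 cells/well in medium containing 20 nM camptothecin, exposed to pin-transferred compounds, and grown at 37 °C for at least 48 hr. Viability was read as ATP luminescence.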
% is set by controls: 0 for no effect and ±100 for the full control effect; potency is the fitted concentration of half-maximal effect; tags give direction and shape of the fitted curve.

Compound	Potency	activity change, negative = growth inhibition
Cc1ccnc(NC(=S)NC(=O)/C=C/c2ccco2)c1	active: 10.3 µM	–
CCC(C)Sc1ccc([C@H]2N[C@@](Cc3ccccc3)(C(=O)OC)[C@H]3C(=O)N(CC)C(=O)[C@@H]23)cc1OC (stereo not given in full)	inconclusive: 20.6 µM [inhibitor, single point]	–
Cc1ccc(SCC(=O)OCC(=O)N2CCN(C(=O)c3ccco3)CC2)c(C)c1	–	inactive: -5.64%
Cc1ccc(NC(=O)C2CCCN(S(=O)(=O)c3cccnc3)C2)cc1C (stereo not given)	inconclusive: 18.4 µM [inhibitor, single point]	–
COC(=O)/C(=N/Nc1ccccc1)N1CCCc2ccccc21	inconclusive: 29.1 µM [inhibitor, single point]	–
C=CCn1c(=O)c2c(nc(Br)n2Cc2ccccc2Cl)n(C)c1=O	active: 18.4 µM	–
Cc1cccc(C)c1NC(=O)C(CCc1ccccc1)n1c(=O)c(-c2cc3ccccc3[nH]2)nc2ccccc21 (stereo not given)	active: 7.31 µM	–
CC(=O)COC(=O)C1=NN(c2ccccc2)C(=O)CC1	–	inactive: -1.21%
O=C(CSc1nnc(CNc2cccc(C(F)(F)F)c2)n1Cc1ccco1)NCc1ccco1	inconclusive: 29.1 µM [inhibitor, single point]	–
COc1cc(NC(=O)COc2ccc([N+](=O)[O-])cc2)ccc1NC(=O)c1ccco1	–	inactive: -4.21%
Cc1ccc(-c2cn3cccnc3n2)cc1NC(=O)c1ccc(Br)o1	–	inactive: -19.1%
CSc1ccc(S(=O)(=O)Nc2c(C)n(C)n(-c3ccccc3)c2=O)cc1	–	inactive: -0.182%
COc1ccc(NC(=O)Cc2ccccc2)cn1	–	inactive: -7.73%
CC(C)NC(=S)NN=C1CCC(c2ccccc2)CC1 (stereo not given)	inconclusive: 20.6 µM [inhibitor, single point]	–
O=C(Nc1ccc(F)cc1)c1ccc(-n2cnnc2)cc1	–	inactive: -6.12%
CCC(CC)NC(=O)COC(=O)c1ccc(OCc2ccc(C(C)=O)cc2OC)c(OC)c1	inconclusive: 18.4 µM [inhibitor, partial curve]	–
Cc1ccc(S(=O)(=O)NCc2ccc(C(=O)NC3CCC(C)CC3)cc2)cc1 (stereo not given)	inconclusive: 29.1 µM [inhibitor, single point]	–
CC(C)(C)C(=O)Nc1cccc(-c2ncon2)c1	–	inactive: -0.0475%

Compound	Potency	activity change, negative = growth inhibition
CS(=O)(=O)N(Cc1ccc(Cl)cc1)c1ccc(C(=O)NCCSCc2ccco2)cc1	inconclusive: 29.1 µM [inhibitor, single point]	–
COc1ccc(CN2CNc3nc4ccccc4n3C2)cc1	inconclusive: 16.4 µM [inhibitor, partial curve]	–
COc1cccc(NC(=O)CSc2nc(C3CC3)nc3ccccc23)c1	–	inactive: 1.42%
C=CCN1C(=O)/C(=C2/Sc3ccc(OC)cc3N2CC)SC1=S	–	inactive: 1.5%
O=C(c1ccc(COc2ccccc2Br)o1)N1CCCCCC1	active: 20.6 µM	–
c1ccc(-c2nc3c4ccccc4ccn3c2CC2CCCCC2)cc1	–	inactive: -16.1%
CC1CCN(C(c2cc3cc4c(cc3[nH]c2=O)OCO4)c2nnnn2CC2CCCO2)CC1 (stereo not given)	–	inconclusive: -30.1% [inhibitor]
COc1ccc(NC(=O)Nc2cccc3c2O[C@H](CN(C)S(=O)(=O)c2ccc(OC)cc2)[C@@H](C)CN([C@H](C)CO)C3=O)cc1	inconclusive: 29.1 µM [inhibitor, single point]	–
CCOC(=O)/C=c1\s/c(=C\c2ccc(C(F)(F)F)cc2)c(=O)n1CC(=O)NCc1ccco1	inconclusive: 2.59 µM [inhibitor, full curve, poor fit]	–
Cc1ccc(S(=O)(=O)N(C)C[C@H]2OCCCC[C@@H](C)Oc3ccc(N(C)C)cc3C(=O)N([C@H](C)CO)C[C@@H]2C)cc1	inconclusive: 29.1 µM [inhibitor, single point]	–
O=C(/C=C/c1ccco1)Nc1scc(-c2ccccc2)c1C(=O)O	inconclusive: 16.4 µM [inhibitor, single point]	–
C=CCc1ccc(OCC(O)CN2CCC(Cc3ccccc3)CC2)c(OC)c1 (stereo not given)	inconclusive: 23.1 µM [inhibitor, single point]	–
CC(=O)c1ccc(N2CCN(C(=O)/C=C/c3ccc(S(=O)(=O)N4CCOCC4)cc3)CC2)cc1	active: 18.4 µM	–
CC(=O)NS(=O)(=O)c1cccnc1Nc1ccc(Cl)cc1	inconclusive: 23.1 µM [inhibitor, single point]	–
O=C1NC(=O)C(c2ccccc2[N+](=O)[O-])=C1Nc1ccc(O)c(Cl)c1	inactive and active: 26.6 µM and active: 7.31 µM	–
O=C(Nc1ccc2ccccc2c1)C(c1ccccc1)n1c(=O)c(-c2cc3ccccc3[nH]2)nc2ccccc21 (stereo not given)	inconclusive: 23.1 µM [inhibitor, single point]	–
O=C(Nc1nnc(S(=O)(=O)N2CCCCC2)s1)c1ccc(Cl)cc1	inconclusive: 20.6 µM [inhibitor, single point] and inconclusive: 6.51 µM [inhibitor, full curve, poor fit]	–

Source: PubChem BioAssay AID686979 (National Center for Advancing Translational Sciences (NCATS), 2013)
